Experimental data from PMC6919601, “Identification of Plasmodium dipeptidyl aminopeptidase allosteric inhibitors by high throughput screening” (PLoS ONE, 2019).
In all, about 110,000 compounds went through this assay and about 230 (0.21%) showed an effect of 50% or more. The list shows a part of the results.

Molecular target: DPAP1 (Plasmodium falciparum, UniProt Q8IIJ9)
Experiment: primary screen, percent inhibition; read by cleavage of a fluorogenic dipeptide substrate; higher = more effect of the substance
Parameters: species or system P. falciparum D10 trophozoite lysates; single well
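Further: 30 min substrate incubation versus DMSO and 10 µM JCP410 controls.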

Sequence of DPAP1 (Q8IIJ9 whole entry, looked up): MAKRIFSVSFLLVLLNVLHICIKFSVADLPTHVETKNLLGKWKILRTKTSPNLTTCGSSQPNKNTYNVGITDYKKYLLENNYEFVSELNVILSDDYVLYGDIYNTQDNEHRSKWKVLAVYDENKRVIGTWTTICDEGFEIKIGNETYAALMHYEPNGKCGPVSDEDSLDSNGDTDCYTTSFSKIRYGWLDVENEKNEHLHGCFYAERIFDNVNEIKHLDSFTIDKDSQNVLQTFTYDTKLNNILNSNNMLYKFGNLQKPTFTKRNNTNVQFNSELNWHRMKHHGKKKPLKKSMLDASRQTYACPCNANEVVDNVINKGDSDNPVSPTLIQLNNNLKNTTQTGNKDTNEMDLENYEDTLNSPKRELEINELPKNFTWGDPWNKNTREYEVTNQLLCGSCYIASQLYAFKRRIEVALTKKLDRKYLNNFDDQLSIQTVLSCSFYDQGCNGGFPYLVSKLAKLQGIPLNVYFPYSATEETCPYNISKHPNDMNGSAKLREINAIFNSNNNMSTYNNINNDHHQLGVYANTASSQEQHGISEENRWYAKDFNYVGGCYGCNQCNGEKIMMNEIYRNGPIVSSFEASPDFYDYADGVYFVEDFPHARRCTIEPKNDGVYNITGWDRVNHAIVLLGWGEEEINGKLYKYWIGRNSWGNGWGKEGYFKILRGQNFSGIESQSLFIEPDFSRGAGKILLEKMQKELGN

| Structure (SMILES) | % Inhibition @ 10 uM [%] |
| --- | --- |
| O=C(NCCCN1CCCC1)C12CC3CC(CC(C3)C1)C2 | 0.266 |
| COc1ccc(C(=O)Nc2nnc(SCc3cc(=O)n4oc(C)cc4n3)s2)cc1 | 0.747 |
| Cc1nn(C(C)C(=O)NCCN2CCOCC2)c(=O)c2nn(-c3ccccc3)c(C)c12 (stereo not drawn) | 2.31 |
| COCCCNC(=O)c1cc(-c2ccc(C)cc2)nc2ccc(Br)cc12 | -4.59 |
| Clc1ccccc1N1CCN(Cc2ccoc2)CC1 | -8.39 |
| O=C(O)CCC(=O)Nc1sc2c(c1C(=O)Nc1cccc3ccccc13)CCCC2 | 17.5 |
| CCOC(=O)CNC(=O)C1=C(C(=O)O)CCCC1 | -8.11 |
| Cc1c(C(=O)NCCCN2CCN(C)CC2)oc2c1-c1nn(Cc3cccc(Cl)c3)cc1CC2 | 4.33 |
| Cc1c(CNCCc2c[nH]c3ccccc23)c(C(=O)O)c(C)n1Cc1cccc(Cl)c1 | -1.92 |
| O=C1C(Nc2cccc(Br)c2)=C(N2CCCCC2)C(=O)c2ccccc21 | 1.84 |
| O=C(CCc1nc2cccnc2n1-c1ccccc1)NCCc1ccccc1 | -4.74 |
| CC1CCCN(C(C(=O)NC2CCCC2)c2ccc(Cl)cc2)C1 (stereo not drawn) | 5.11 |
| Cc1cccc(C)c1OCC(=O)Nc1ccc(S(=O)(=O)NC(C)(C)C)cc1 | -2.28 |
| O=C(NCc1cccs1)c1cc(-c2ccc(Cl)cc2)n[nH]1 | 1.94 |
| COc1cc(C2=N/C(=C\c3ccc(C(C)(C)C)cc3)C(=O)O2)cc(OC)c1OC | 84.3 |
| Cc1oc2ncn(C)c(=O)c2c1C(=O)N(CCN(C)C)Cc1ccco1 | 1.58 |
| CCOc1cc(/C=C2/SC(N3CCOCC3)=NC2=O)ccc1O | -1.08 |
| O=C1CC(c2cccs2)c2c(O)nc3ccccc3c2O1 (stereo not drawn) | 2.77 |
| COc1ccccc1NC(=O)CSc1nc(-c2ccc(OC)c(OC)c2)ccc1C#N | 4.28 |
| CSc1ncc(C(=O)NCc2ccc(C)cc2)c(C(F)(F)F)n1 | 0.776 |
| FC(F)(F)c1cccnc1N1CCN(c2ncnc3[nH]cnc23)CC1 | 0.221 |
| CCNC1(c2ccccc2)C(=O)c2ccccc2C1=O | -0.25 |
| CCC(C)NC(=O)c1cc2cc3ccc(OC)cc3nc2s1 (stereo not drawn) | -0.704 |
| CCOC(=O)c1c(C)c(C(=O)NCCC2=CCCCC2)c(C)n1CC | -3.44 |

| Structure (SMILES) | % Inhibition @ 10 uM [%] |
| --- | --- |
| Cc1cc(C(F)(F)F)nc(NC(=O)NC(=O)c2cccc(F)c2)n1 | 0.475 |
| O=C(CN1C(=O)C(c2ccccc2)Oc2cccnc21)NCc1ccccc1Cl (stereo not drawn) | 11.9 |
| COc1ccc2c(C)c(C(=O)NCCNC(=O)c3oc4c(OC)c(OC)ccc4c3C)oc2c1OC | 1.7 |
| O=C1c2ccccc2C(=O)c2c1n[n+]([O-])n2CCCN1CCOCC1 | -2.79 |
| NC(=O)c1cc(S(=O)(=O)N2CCc3ccccc3C2)cs1 | -5.57 |
| CC1CCCN(S(=O)(=O)c2cccc3nonc23)C1 (stereo not drawn) | -2.36 |
| Cc1nc2c3ccccc3n3c(CCCC(=O)NCCc4ccc(S(N)(=O)=O)cc4)nnc3n2n1 | 0.44 |
| CC(=O)N1N=C(c2ccc(C)cc2)CC1c1cc2cc3c(cc2nc1Cl)OCO3 (stereo not drawn) | 3.87 |
| COCc1[nH]nc2c1C(c1ccco1)C(C#N)=C(N)O2 (stereo not drawn) | 3.05 |
| O=C(CN1C(=O)c2cccc3cccc1c23)NCc1cccnc1 | -6.05 |
| O=c1c2c(nc3n1CCCS3)-c1ccccc1CC21CCCCC1 | -5.62 |
| Cc1nn(C(C)C(=O)NCc2ccco2)c2ccccc12 (stereo not drawn) | 0.596 |
| CCc1ccc(NC(=O)c2cccc(C)c2)cc1 | 2.22 |
| Cc1ccccc1CN1C[C@@H]2C[C@H](C1)c1cccc(=O)n1C2 | 3.42 |
| FC(F)(F)C1(C(F)(F)F)N=C(c2ccncc2)OC(c2ccco2)=N1 | -11.5 |
| CC(=O)Nc1c(O)nc(SCc2ccc(Br)cc2)nc1O | 22.4 |
| CCCCO/C(O)=C1\C(C)=NC2=C(C(=O)CCC2)C1c1ccccc1OCC (stereo not drawn) | 11.6 |
| COc1ccccc1CC(=O)Nc1cc(OC)c(NC(=O)c2ccccc2)cc1OC | -3.41 |
| O=c1[nH]c(/C=C/c2ccc(Cl)cc2Cl)c([N+](=O)[O-])c(=O)[nH]1 | 1 |
| CCC(C)NC(=O)c1ccc(-c2nc(CS(=O)(=O)c3ccc(C)cc3)c(C)o2)cc1 (stereo not drawn) | -1.3 |
| COc1ccc(C(=O)C2=C(O)C(=O)N(Cc3ccncc3)C2c2ccccc2F)cc1 (stereo not drawn) | 3.8 |
| Cc1cccn2c(=O)c3cc(C(=O)NCc4ccco4)c(=N)n(Cc4ccco4)c3nc12 | 4.98 |
| CC(C)c1ccccc1OCC(=O)Nc1ccc(S(=O)(=O)N2CCCC2)cc1 | -0.795 |
| CCOC(=O)c1ccc(-n2c(C)cc(/C=C3\SC(=O)NC3=O)c2C)cc1 | -0.053 |

| Structure (SMILES) | % Inhibition @ 10 uM [%] |
| --- | --- |
| CCc1cc2c(cc(C(=O)OC)n2Cc2cccc(OC)c2)s1 | -6.09 |
| O=C(NCCN1CCOCC1)c1cc2nc(-c3ccc(Br)cc3)cc(C(F)(F)F)n2n1 | -2.22 |
| O=C(NCCc1ccccc1)c1ccccc1NS(=O)(=O)c1ccc(F)cc1 | -5.92 |
| COCCCNC(=O)c1ccc(CSc2nc3cccnc3n2Cc2cccc(F)c2)cc1 | 4.19 |
| Cc1cc(=O)oc2cc(OCc3ccccc3F)ccc12 | 7.75 |
| Cc1ccc2c(Sc3ccc(Cl)cc3)c(C(=O)NCCCN3CCCC3=O)[nH]c2c1 | -6.32 |
| C/C(O)=C(/C#N)c1nc2ccccc2c2ccccc12 | -1.85 |
| Cc1ccc(NC(=O)COc2ccc(Cl)cc2Cl)cc1 | -5.51 |
| N#Cc1c(-c2ccc(Cl)cc2)cc(-c2ccccc2)nc1O | -4.93 |
| CCOC(=O)c1c(N)n(-c2ccc(Br)cc2)c2nc3cc([N+](=O)[O-])c([N+](=O)[O-])cc3nc12 | 3.31 |
| CC(C)C(=O)Nc1nc(O)c2c(n1)NC(C)C(C)N2C(=O)c1ccc[n+](C)c1 (stereo not drawn) | -4.68 |
| COc1ccc(C(=O)CSc2nn3c(SCC(=O)c4ccc(OC)cc4)nnc3s2)cc1 | 8.96 |
| O=C(O)CCC1CN(C(=O)c2ccccc2)c2ccccc21 (stereo not drawn) | 4.11 |
| CCOc1ccccc1N1CCN(Cc2ccc(OC)c(C)c2OC)CC1 | -1.32 |
| CCOC(=O)C1=C(CS(=O)(=O)c2ccc(F)c(Cl)c2)NC(=O)NC1c1cccc(OC)c1 (stereo not drawn) | -5.79 |
| N#CC1=C(N)Oc2c(c(O)nc3ccccc23)C1c1cccc(F)c1 (stereo not drawn) | 23.8 |
| CC(C)c1ccc(-n2nnc(-c3nc(-c4ccc(Cl)cc4)no3)c2N)cc1 | 1.4 |
| FC(F)(F)c1ccccc1CNc1ccc2c(c1)OCO2 | -3.6 |
| COc1ccc(-c2csc3ncn(CC(=O)Nc4ccc(C)cc4)c(=O)c23)cc1 | 1.8 |
| CC(C)(C)CC(OC(=O)N1CCOCC1)C(=O)NC1CCCN(C(=O)OCc2ccccc2)CC1=O (stereo not drawn) | 1.35 |
| COc1ccc(OC2CCN(S(=O)(=O)c3ccc(C(C)=O)cc3)CC2)cc1 | 2.29 |
| CC(C)Sc1ncc(Cl)c(C(=O)Nc2nc3ccc(F)cc3s2)n1 | -0.946 |
| O=C(CCN1C(=O)c2ccccc2Sc2ncccc21)NCc1ccc2c(c1)OCO2 | -1.81 |
| COCCCn1c(SCc2ccccc2C#N)nc2c(sc3ccccc32)c1=O | 11.4 |

| Structure (SMILES) | % Inhibition @ 10 uM [%] |
| --- | --- |
| O=C(CSc1nc2ccccc2o1)Nc1cccc2ccccc12 | -3.84 |
| N#CC(Nc1ccccc1)c1ccc(Br)cc1 (stereo not drawn) | 2.15 |
| CS(=O)(=O)CCC(C(=O)NCc1ccc(CN2CCOCC2)o1)N1Cc2ccccc2C1=O (stereo not drawn) | 4.36 |
| N#Cc1cc2c(nc1SCCN1C(=O)c3ccccc3C1=O)CCC2 | 2.68 |
| COc1cc(OC)cc(C(=O)N2N=C(C)CC2(O)C(F)F)c1 (stereo not drawn) | -4.82 |
| O=[N+]([O-])c1ccc2nccc(O)c2c1 | 2.23 |
| COc1ccc(CC(=O)N2CCC3(CC2)N=C(c2ccccc2)C(=O)N3)cc1 | 3.24 |
| Cc1ccc2onc(CNC(=O)NCCc3ccc(Cl)cc3)c2c1 | -1.97 |
| O=C(O)c1ccc(/C=C/c2ccc3cccc(O)c3n2)cc1 | 7.26 |
| COc1ccc(CNC(=O)C2CCN(S(C)(=O)=O)CC2)c(OC)c1 | 0.387 |
| Cc1ccc2oc(=O)c3cc(C(=O)N4CC(C)CC(C)C4)sc3c2c1 (stereo not drawn) | -2.75 |
| CC(C)CCNC(=O)c1ccc2nc(-c3ccco3)c(-c3ccco3)nc2c1 | 10.7 |
| CC1(C)CC(=O)C(/C=N/Cc2ccc(F)cc2)=C(O)C1 | 8.01 |
| Cc1cc(C)nc(NS(=O)(=O)c2ccc(NC3=NC(=O)CS3)cc2)n1 | -1.51 |
| CCCNC(=O)C1CCN(c2nc3c(C)cc(C)cc3s2)CC1 | -5.19 |
| CCOC(=O)C1=C(CN2CCC(C)CC2)NC(=O)NC1c1ccc(C)cc1 (stereo not drawn) | 3.47 |
| CCOC(=O)c1c(NC(=O)c2cc(=O)c3cc(Cl)ccc3o2)sc2c1CCCC2 | 0.248 |
| Fc1ccc(CN2CCN(c3ccccc3Cl)CC2)cc1Br | -1.86 |
| O=C(CNS(=O)(=O)c1ccc(Br)cc1)N1CCN(Cc2ccccc2)CC1 | 10.8 |
| Cc1ccc(NCC2COc3c(C)cccc3C2=O)cc1 (stereo not drawn) | -6.68 |
| CC(C)N(Cc1nc(-c2ccccc2)no1)C(=O)c1ccccc1-c1ccccc1 | 3.84 |
| COc1ccccc1CNC(=O)C1CCCN(Cc2cnn(-c3ccccc3)c2-n2cccc2)C1 (stereo not drawn) | 5.23 |
| CCCN1CCN(C(=O)Cn2cnc3onc(-c4ccc(F)cc4)c3c2=O)CC1 | -7.87 |
| CN1CCN(C(=O)C2CCC(CNS(=O)(=O)c3cccc4cccnc34)CC2)CC1 (stereo not drawn) | -0.692 |
